Assay results published in patent publication US11420968B2 (priority 2018, dated 2022).
Like-named read-outs stand apart in the source and are kept apart here.

Legend:
Molt-4 cells = assay: cells; details: Homo sapiens, MOLT-4, read-out: Cellular activity (IC50, nM) Molt-4
RS4;11 cells = assay: cells; details: Homo sapiens, RS4-11, 48 h
[1] = read-out: Cellular activity (IC50, nM) RS4, 11
[2] = read-out: Cellular activity (IC50, nM) RS4;11

CCc1ccccc1[C@@H]1CCCN1C1CC=C(c2ccc(C(=O)NS(=O)(=O)c3ccc(NCC4(F)CCOCC4)c([N+](=O)[O-])c3)c(Oc3cnc4[nH]ccc4c3)c2)CC1 (stereo partly drawn) [Example G90-S, 3-((1H-pyrrolo[2,3-b]pyridin-5-yl)oxy)-4′-((S)-2-(2-ethylphenyl)pyrrolidin-1-yl)-N-((4-(((4-fluorotetrahydro-2H-pyran-4-yl)methyl)amino)-3-nitrophenyl)sulfonyl)-2′,3′,4′,5′-tetrahydro-[1,1′-biphenyl]-4-carboxamide]
IC50 (Molt-4 cells): 6780 nM | IC50 (RS4;11 cells; [1]): 11 nM

O=C(NS(=O)(=O)c1ccc(NCC2(F)CCN(C3COC3)CC2)c([N+](=O)[O-])c1)c1ccc(-c2ccc(N3CCC[C@@H]3c3ccccc3C3CC3)cc2)cc1Oc1cnc2[nH]ccc2c1 [Example G98, (R)-3-((1H-pyrrolo[2,3-b]pyridin-5-yl)oxy)-4′-(2-(2-cyclopropylphenyl)pyrrolidin-1-yl)-N-((4-(((4-fluoro-1-(oxetan-3-yl)piperidin-4-yl)methyl)amino)-3-nitrophenyl)sulfonyl)-[1,1′-biphenyl]-4-carboxamide]
IC50 (Molt-4 cells): 1350 nM | IC50 (RS4;11 cells; [1]): 5.6 nM

O=C(NS(=O)(=O)c1ccc(OCC2CCC3(CC2)COC3)c([N+](=O)[O-])c1)c1ccc(-c2ccc(N3CCC[C@@H]3c3ccccc3C3CC3)cc2)cc1Oc1cnc2[nH]ccc2c1 [Example G99, (R)-3-((1H-pyrrolo[2,3-b]pyridin-5-yl)oxy)-N-((4-((2-oxaspiro[3.5]nonan-7-yl)methoxy)-3-nitrophenyl)sulfonyl)-4′-(2-(2-cyclopropylphenyl)pyrrolidin-1-yl)-[1,1′-biphenyl]-4-carboxamide]
IC50 (Molt-4 cells): 6900 nM | IC50 (RS4;11 cells; [2]): 36 nM

CC1=CCC(CNc2ccc(S(=O)(=O)NC(=O)c3ccc(-c4ccc(N5CCC[C@@H]5c5ccccc5C5CC5)cc4)cc3Oc3cnc4[nH]ccc4c3)cc2[N+](=O)[O-])CC1 (stereo partly drawn) [Example G102, 3-((1H-pyrrolo[2,3-b]pyridin-5-yl)oxy)-4′-((R)-2-(2-cyclopropylphenyl)pyrrolidin-1-yl)-N-((4-(((4-methylcyclohex-3-en-1-yl)methyl)amino)-3-nitrophenyl)sulfonyl)-[1,1′-biphenyl]-4-carboxamide]
IC50 (Molt-4 cells): > 10000 nM | IC50 (RS4;11 cells; [2]): 861 nM

CCc1ccccc1[C@H]1CCCN1c1ccc(-c2ccc(C(=O)NS(=O)(=O)c3ccc(NC[C@H]4CC[C@](C)(O)CC4)c([N+](=O)[O-])c3)c(Oc3cnc4[nH]ccc4c3)c2)cc1 [Example G103, 3-((1H-pyrrolo[2,3-h]pyridin-5-yl)oxy)-4′-((R)-2-(2-ethylphenyl)pyrrolidin-1-yl)-N-((4-((((1r,4r)-4-hydroxy-4-methylcyclohexyl)methyl)amino)-3-nitrophenyl)sulfonyl)-[1,1′-biphenyl]-4-carboxamide]
IC50 (Molt-4 cells): 9590 nM | IC50 (RS4;11 cells; [1]): 58 nM

CCc1ccccc1[C@H]1CCCN1c1ccc(-c2ccc(C(=O)NS(=O)(=O)c3ccc(OCC4(F)CCN(C5COC5)CC4)c([N+](=O)[O-])c3)c(Oc3cnc4[nH]ccc4c3)c2)cc1 [Example G104, (R)-3-((1H-pyrrolo[2,3-b]pyridin-5-yl)oxy)-4′-(2-(2-ethylphenyl)pyrrolidin-1-yl)-N-((4-((4-fluoro-1-(oxetan-3-yl)piperidin-4-yl)methoxy)-3-nitrophenyl)sulfonyl)-[1,1′-biphenyl]-4-carboxamide]
IC50 (Molt-4 cells): 1310 nM | IC50 (RS4;11 cells; [1]): 11 nM

C[C@]1(O)CC[C@H](CNc2ccc(S(=O)(=O)NC(=O)c3ccc(C4=CCC(N5CCCC5c5cccc(Cl)c5C5CC5)CC4)cc3Oc3cnc4[nH]ccc4c3)cc2[N+](=O)[O-])CC1 (stereo partly shown) [Example G106, 3-((1H-pyrrolo[2,3-b]pyridin-5-yl)oxy)-4′-(2-(3-chloro-2-cyclopropylphenyl)pyrrolidin-1-yl)-N-((4-((((1r,4r)-4-hydroxy-4-methylcyclohexyl)methyl)amino)-3-nitrophenyl)sulfonyl)-2′,3′,4′,5′-tetrahydro-[1,1′-biphenyl]-4-carboxamide]
IC50 (Molt-4 cells): 3170 nM | IC50 (RS4;11 cells; [1]): 15 nM

O=C(NS(=O)(=O)c1ccc(NCC2(F)CCC(O)CC2)c([N+](=O)[O-])c1)c1ccc(C2=CCC(N3CCC[C@H]3c3ccccc3C3CC3)CC2)cc1Oc1cnc2[nH]ccc2c1 (stereo partly shown) [Example G109]
IC50 (Molt-4 cells): > 10000 nM | IC50 (RS4;11 cells; [1]): 24 nM
